Test results reported in PubChem BioAssay (NCATS).
Where “and” joins values, the source holds several entries; their conditions need not be identical. Equal values may be shown once. Inconclusive results, whose numbers are uncertain, are shown with a selection of clear calls. Potencies of inconclusive entries are doubtful fits and often do not repeat. Calls of active or inactive are those of the source. The call rests on the fitted dose curve; in most records, active means well fitted inhibition curve with a large enough effect; inconclusive means small, poorly fitted or top-dose-only effect; inactive means flat fitted curve, though single readings scatter.
Potency means the concentration at half of the fitted maximal effect; tags describe the fitted curve by direction and shape.

Experiment: qHTS for Inhibitors of Plasmodium falciparum (HB3) proliferation (AID 504318); further: nearly all actives have a fitted effect of over 60% in size;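 on activity change, negative = inhibition: 0% = DMSO vehicle and -100% = artemisinin control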
Settings: P. falciparum HB3 in erythrocytes, SYBR Green DNA, 72 h; activity change, negative = inhibition: at 7.21 µM (top of the series)
Procedure, shortened: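 Erythrocytes infected with P. falciparum line (0.3% parasitemia, 2.5% hematocrit final) incubated with compounds 72 h at 37 °C, 5% CO2; SYBR Green lysis buffer added, fluorescence read next day. Normalized to 0.29 uM artemisinin and DMSO.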
With `C[C@H]1Cc2c(COc3ccccc3)nc3c(c2CO1)CN(C(=O)C1CCCCC1)CC3` the Potency was inconclusive: 1.51 µM [inhibitor, partial curve].
In the case of `CC(C)[C@@H](OCc1ccccc1)[C@H](C)CON=C1[C@H]2CCn3c(=O)n(-c4ccccc4)c(=O)n3[C@@H]2[C@H](O)[C@@H]2O[C@H]12`, the “activity change, negative = inhibition” value is reported as inactive: -10.3%.
For `O=C1[C@@H]2[C@H]3[C@H](O)[C@H](O)CC(=NOC[C@@H](O)COCc4ccco4)[C@@H]3CC[C@H]2C(=O)N1Cc1ccccc1`, the Potency was inconclusive: 1.51 µM [inhibitor, partial curve].
In the case of `CCCCc1nc2c(c3c1C[C@H](C)OC3)CN(C(=O)Cc1cccs1)CC2`, the Potency is reported as inconclusive: 1.47 µM [inhibitor, partial curve] and inactive.
With `COC(=O)CC=C[C@@H](C)[C@@H](C=NOC[C@H]1O[C@H](c2ccccc2)C=C[C@H]1Oc1ccc(OC)cc1)N[S+](=O)([O-])c1ccc(C)cc1` the Potency was inconclusive: 4.15 µM [inhibitor, single point].
With `CCc1cc2c(nc1CC)CCN(CCC(C)=NOCC[C@@H]1C=C[C@H](OC(C)=O)[C@@H](COC(C)=O)O1)C2` the Potency was inconclusive: 3.29 µM [inhibitor, single point].
For `COC(=O)CCCC1=CC2=CC(=O)C(C)(OC(=O)c3cccs3)C(=O)C2=CN1c1ccc(OC)cc1` (stereo unspecified), the Potency was inconclusive: 2.62 µM [inhibitor, single point] and inconclusive: 2.39 µM [inhibitor, single point].
For `COc1ccc(O[C@H]2C=C[C@@H](c3ccccc3)O[C@H]2CON=C2c3cc(OC)ccc3O[C@H](c3cccc(OC)c3)[C@H]2O)cc1`, the Potency was inconclusive: 1.51 µM [inhibitor, partial curve, poor fit].
With `COc1ccc2c(c1)O[C@@H](c1cccc(C(F)(F)F)c1)[C@H](OC(=O)Nc1cc(OC)c(OC)c(OC)c1)C2=O` the Potency was inconclusive: 3.38 µM [inhibitor, single point].
In the case of `C#CCCCON=C1C[C@@H](O)[C@H](O)[C@H]2[C@@H]3C(=O)N(Cc4ccc5c(c4)OCO5)C(=O)[C@@H]3CC[C@@H]12`, the Potency is reported as inconclusive: 2.94 µM [inhibitor, single point].
With `Cc1cc(O)cc(O)c1C(=O)OC1(C)C(=O)C=C2C=C(C=CCO)OC=C2C1=O` (stereo unspecified) the “activity change, negative = inhibition” value was inactive: 6.24%.
For `C(#C[C@@H]1C=C[C@H]2OC(c3ccccc3)OC[C@H]2O1)c1ccccc1` (stereo partly specified), the “activity change, negative = inhibition” value was inactive: -2.52%.
In the case of `COC(=O)C1=C(C)N(CCc2cc(OC)c(OC)c(OC)c2)C(=O)NC1c1ccc(Br)cc1` (stereo unspecified), the Potency is reported as inconclusive: 2.62 µM [inhibitor, partial curve].
For `C=CC1=C2C=C(C3CC3)N(CC(C)C)C=C2C(=O)C(C)(OC(=O)c2ccco2)C1=O` (stereo unspecified), the Potency was inconclusive: 4.26 µM [inhibitor, single point] and inactive.
In the case of `COC1=C[C@H](C(=O)NC2CCN(Cc3ccccc3)CC2)[C@H](C)[C@@H](c2ccccc2)CC1=O`, the Potency is reported as inconclusive: 1.9 µM [inhibitor, single point].
For `COC(=O)CCCC1=CC2=C(c3ccccc3)C(=O)C(C)(OC(=O)C3CCCC3)C(=O)C2=CN1c1ccc(OC)cc1` (stereo unspecified), the Potency was inconclusive: 4.26 µM [inhibitor, single point] and inconclusive: 1.9 µM [inhibitor, partial curve, poor fit].
